Results: the supplement of paper PMC8728848
This is one part of the list.

Columns and labels:
Test in all cases: glycan array binding signal (z-score within array); higher = stronger binding
Conditions in all cases: glycan notation: IUPAC condensed, linker removed; mutation: R82H, R255H
[1] = molecular target: GlcNAc(b1-3)Gal(b1-4)GlcNAc(b1-3)Gal(b1-4)GlcNAc(b1-3)Gal(b1-4)GlcNAc(b1-3)Gal(b1-4)GlcNAc(b1-2)[GlcNAc(b1-3)Gal(b1-4)GlcNAc(b1-3)Gal(b1-4)GlcNAc(b1-3)Gal(b1-4)GlcNAc(b1-3)Gal(b1-4)GlcNAc(b1-6)]Man(a1-6)[GlcNAc(b1-3)Gal(b1-4)GlcNAc(b1-3)Gal(b1-4)GlcNAc(b1-3)Gal(b1-4)GlcNAc(b1-3)Gal(b1-4)GlcNAc(b1-2)Man(a1-3)]Man(b1-4)GlcNAc(b1-4)[Fuc(a1-6)]GlcNAc
Procedure, shortened: (§1)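 The binding signal is a Z-score computed within each array and averaged over linkers. Arrays of the same protein sequence at different concentrations or buffers were also averaged together. Data originate from 3228 arrays in the Consortium for Functional Glycomics database, kept only where the protein sequence was available.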

[2] = molecular target: GlcNAc(b1-3)Gal(b1-4)GlcNAc(b1-3)Gal(b1-4)GlcNAc(b1-3)GalNAc
Procedure, shortened: as §1

[3] = molecular target: GlcNAc(b1-3)Gal(b1-4)GlcNAc(b1-3)GalNAc
Procedure, shortened: as §1

[4] = molecular target: GlcNAc(b1-3)Gal(b1-4)GlcNAc(b1-3)[GlcNAc(b1-3)Gal(b1-4)GlcNAc(b1-3)]GalNAc
Procedure, shortened: as §1

[5] = molecular target: GlcNAc(b1-3)Gal(b1-4)GlcNAc(b1-6)[Gal(b1-3)]GalNAc
Procedure, shortened: as §1

[6] = molecular target: GlcNAc(b1-3)Gal(b1-4)GlcNAc(b1-6)[GlcNAc(b1-3)Gal(b1-3)]GalNAc
Procedure, shortened: as §1

[7] = molecular target: GlcNAc(b1-3)Gal(b1-4)GlcNAc(b1-6)[GlcNAc(b1-3)]Gal(b1-4)GlcNAc
Procedure, shortened: as §1

[8] = molecular target: GlcNAc(b1-3)GalNAc
Procedure, shortened: as §1

[9] = molecular target: GlcNAc(b1-3)Man
Procedure, shortened: as §1

[10] = molecular target: GlcNAc(b1-3)[GlcNAc(b1-4)][GlcNAc(b1-6)]GlcNAc
Procedure, shortened: as §1

[11] = molecular target: GlcNAc(b1-3)[GlcNAc(b1-6)]Gal(b1-4)GlcNAc
Procedure, shortened: as §1

[12] = molecular target: GlcNAc(b1-3)[GlcNAc(b1-6)]GalNAc
Procedure, shortened: as §1

[13] = molecular target: GlcNAc(b1-4)Gal(b1-4)GlcNAc
Procedure, shortened: as §1

[14] = molecular target: GlcNAc(b1-4)GlcNAc
Procedure, shortened: as §1

[15] = molecular target: GlcNAc(b1-4)GlcNAc(b1-4)GlcNAc
Procedure, shortened: as §1

[16] = molecular target: GlcNAc(b1-4)GlcNAc(b1-4)GlcNAc(b1-4)GlcNAc(b1-4)GlcNAc
Procedure, shortened: as §1

[17] = molecular target: GlcNAc(b1-4)GlcNAc(b1-4)GlcNAc(b1-4)GlcNAc(b1-4)GlcNAc(b1-4)GlcNAc
Procedure, shortened: as §1

[18] = molecular target: GlcNAc(b1-4)[GlcNAc(b1-6)]GalNAc
Procedure, shortened: as §1

[19] = molecular target: GlcNAc(b1-6)Gal(b1-4)GlcNAc
Procedure, shortened: as §1

[20] = molecular target: GlcNAc(b1-6)GalNAc
Procedure, shortened: as §1

[21] = molecular target: GlcNAc6S(b1-3)Gal(b1-4)GlcNAc
Procedure, shortened: as §1

[22] = molecular target: Kdn(a2-3)Gal(b1-3)GalNAc
Procedure, shortened: as §1

[23] = molecular target: Kdn(a2-3)Gal(b1-3)GlcNAc
Procedure, shortened: as §1

[24] = molecular target: Kdn(a2-3)Gal(b1-4)Glc
Procedure, shortened: as §1

[25] = molecular target: Kdn(a2-3)Gal(b1-4)GlcNAc
Procedure, shortened: as §1

[26] = molecular target: Kdn(a2-3)Gal(b1-4)[Fuc(a1-3)]GlcNAc
Procedure, shortened: as §1

[27] = molecular target: Kdn(a2-6)Gal(b1-4)GlcNAc
Procedure, shortened: as §1

[28] = molecular target: Man(a1-2)Man(a1-2)Man(a1-3)Man
Procedure, shortened: as §1

[29] = molecular target: Man(a1-2)Man(a1-2)Man(a1-6)[Man(a1-3)]Man
Procedure, shortened: as §1

[30] = molecular target: Man(a1-2)Man(a1-3)Man
Procedure, shortened: as §1

[31] = molecular target: Man(a1-2)Man(a1-3)[Man(a1-2)Man(a1-6)]Man
Procedure, shortened: as §1

[32] = molecular target: Man(a1-2)Man(a1-3)[Man(a1-2)Man(a1-6)]Man(a1-6)[Man(a1-2)Man(a1-2)Man(a1-3)]Man
Procedure, shortened: as §1

[33] = molecular target: Man(a1-2)Man(a1-3)[Man(a1-2)Man(a1-6)]Man(a1-6)[Man(a1-2)Man(a1-2)Man(a1-3)]Man(b1-4)GlcNAc(b1-4)GlcNAc
Procedure, shortened: as §1

[34] = molecular target: Man(a1-2)Man(a1-3)[Man(a1-6)]Man(a1-6)[Man(a1-2)Man(a1-3)]Man(b1-4)GlcNAc(b1-4)GlcNAc
Procedure, shortened: as §1

[35] = molecular target: Man(a1-2)Man(a1-6)[Man(a1-3)]Man(a1-6)[Man(a1-2)Man(a1-2)Man(a1-3)]Man
Procedure, shortened: as §1

[36] = molecular target: Man(a1-2)Man(a1-6)[Man(a1-3)]Man(a1-6)[Man(a1-2)Man(a1-2)Man(a1-3)]Man(b1-4)GlcNAc(b1-4)GlcNAc
Procedure, shortened: as §1

[37] = molecular target: Man(a1-3)[Man(a1-6)]Man
Procedure, shortened: as §1

B1: Gal 8 (Mus musculus), Q9JL15 (protein)
chain: MGGSHHHHHHGMASMLSLNNLQNIIYNPIIPYVGTITEQLKPGSLIVIRGHVPKDSERFQVDFQLGNSLKPRADVAFHFNPHFKRSSCIVCNTLTQEKWGWEEITYDMPFRKEKSFEIVFMVLKNKFQVAVNGRHVLLYAHRISPEQIDTVGIYGKVNIHSIGFRFSSASALPHTLGDLQSMETSALGLTQINRENIQKPGKLQLSLPFEARLNASMGPGRTVVIKGEVNTNARSFNVDLVAGKTRDIALHLNPHLNVKAFVRNSFLQDAWGEEERNITCFPFSSGMYFEMIIYCDVREFKVAINGVHSLEYKHRFKDLSSIDTLSVDGDIRLLDVRSW
- glycan array binding signal (z-score) [1]: 6.71
- glycan array binding signal (z-score) [2]: -0.242
- glycan array binding signal (z-score) [3]: -0.257
- glycan array binding signal (z-score) [4]: -0.229
- glycan array binding signal (z-score) [5]: -0.251
- glycan array binding signal (z-score) [6]: -0.252
- glycan array binding signal (z-score) [7]: -0.362
- glycan array binding signal (z-score) [8]: -0.213
- glycan array binding signal (z-score) [9]: -0.209
- glycan array binding signal (z-score) [10]: -0.281
- glycan array binding signal (z-score) [11]: -0.252
- glycan array binding signal (z-score) [12]: -0.268
- glycan array binding signal (z-score) [13]: -0.209
- glycan array binding signal (z-score) [14]: -0.233
- glycan array binding signal (z-score) [15]: -0.255
- glycan array binding signal (z-score) [16]: -0.232
- glycan array binding signal (z-score) [17]: -0.175
- glycan array binding signal (z-score) [18]: -0.278
- glycan array binding signal (z-score) [19]: -0.251
- glycan array binding signal (z-score) [20]: -0.121
- glycan array binding signal (z-score) [21]: -0.263
- glycan array binding signal (z-score) [22]: -0.189
- glycan array binding signal (z-score) [23]: -0.24
- glycan array binding signal (z-score) [24]: -0.036
- glycan array binding signal (z-score) [25]: -0.25
- glycan array binding signal (z-score) [26]: 0.815
- glycan array binding signal (z-score) [27]: -0.259
- glycan array binding signal (z-score) [28]: -0.264
- glycan array binding signal (z-score) [29]: 0.015
- glycan array binding signal (z-score) [30]: -0.259
- glycan array binding signal (z-score) [31]: -0.239
- glycan array binding signal (z-score) [32]: -0.287
- glycan array binding signal (z-score) [33]: 0.01
- glycan array binding signal (z-score) [34]: -0.26
- glycan array binding signal (z-score) [35]: -0.276
- glycan array binding signal (z-score) [36]: -0.167
- glycan array binding signal (z-score) [37]: -0.24
